# Source: publication PMC4336329 (PLoS ONE, 2015)
# About 2,200 (0.71%) of roughly 310,000 compounds showed an effect of 50% or more. The effect is printed as a negative number. Some of the results follow.
# Biological target: human ether-à-go-go-related gene (hERG) potassium channel (human, UniProt Q12809)
# Assay: primary screen, population patch clamp on CHO cells stably expressing hERG
# human ether-à-go-go-related gene (hERG) potassium channel, sequence (Q12809 whole entry, looked up): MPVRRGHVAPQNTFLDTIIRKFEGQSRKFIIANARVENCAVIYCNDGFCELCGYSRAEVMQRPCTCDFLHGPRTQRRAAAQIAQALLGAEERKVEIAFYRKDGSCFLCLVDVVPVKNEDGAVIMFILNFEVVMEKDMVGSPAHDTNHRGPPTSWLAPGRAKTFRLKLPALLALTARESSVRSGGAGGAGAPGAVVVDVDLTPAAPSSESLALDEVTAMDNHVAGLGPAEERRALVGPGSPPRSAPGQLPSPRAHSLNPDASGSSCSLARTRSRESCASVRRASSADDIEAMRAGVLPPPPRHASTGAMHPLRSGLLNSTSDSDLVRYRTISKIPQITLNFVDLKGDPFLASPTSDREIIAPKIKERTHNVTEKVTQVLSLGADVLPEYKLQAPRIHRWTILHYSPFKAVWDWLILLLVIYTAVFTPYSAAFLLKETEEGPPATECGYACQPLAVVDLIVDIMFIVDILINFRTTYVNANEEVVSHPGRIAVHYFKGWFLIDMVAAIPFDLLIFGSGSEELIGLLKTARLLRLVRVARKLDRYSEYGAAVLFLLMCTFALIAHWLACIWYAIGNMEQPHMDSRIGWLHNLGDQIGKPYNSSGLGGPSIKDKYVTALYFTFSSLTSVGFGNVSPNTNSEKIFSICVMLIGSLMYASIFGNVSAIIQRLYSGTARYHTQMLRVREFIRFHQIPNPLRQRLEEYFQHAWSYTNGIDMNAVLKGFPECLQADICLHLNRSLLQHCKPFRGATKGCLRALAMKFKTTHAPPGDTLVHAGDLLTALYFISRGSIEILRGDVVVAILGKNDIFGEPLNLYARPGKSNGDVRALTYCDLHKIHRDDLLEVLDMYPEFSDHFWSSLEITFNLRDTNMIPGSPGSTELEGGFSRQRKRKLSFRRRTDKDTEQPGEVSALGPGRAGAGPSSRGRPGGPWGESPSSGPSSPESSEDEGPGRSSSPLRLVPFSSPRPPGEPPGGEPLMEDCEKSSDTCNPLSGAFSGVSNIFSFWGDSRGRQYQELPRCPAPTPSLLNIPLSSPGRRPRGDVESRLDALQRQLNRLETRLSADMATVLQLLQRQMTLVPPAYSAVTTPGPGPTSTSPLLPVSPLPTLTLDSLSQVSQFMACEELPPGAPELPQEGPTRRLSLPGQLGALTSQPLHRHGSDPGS
row,Structure (SMILES),"hERG current change (%, negative = inhibition) at 1uM [%]"
1,CC(=O)O.Cc1ccc(C2C(C(=O)c3cccs3)=C(O)C(=O)N2c2ccc(S(N)(=O)=O)cc2)cc1 (stereo not shown),14.7
2,Cn1ncc(Cl)c1C(=O)Nc1ccc2c(c1)CCC2,19.9
3,O=C1c2ccccc2C(=O)N1c1cccc2cccnc12,17.2
4,CCOc1cc(CNCCc2c[nH]c3ccccc23)cc(Cl)c1OC.Cl,11.5
5,Cc1ccc(/C=N\NC(=O)Cn2c(C)nc3ccccc32)o1,2.3
6,Cc1cc(C)nc(NS(=O)(=O)c2ccc(NC(=O)CCCN3C(=O)c4ccccc4C3=O)cc2)n1,6.57
7,N#CC(=C1SC=CS1)c1nc(-c2ccccc2)cs1,14.9
8,O=C(Nn1cnc2ccccc2c1=O)c1ccc(F)cc1Cl,9.99
9,Cc1cc(C)n2nc(SCc3nnc(SCc4ccccc4)s3)nc2n1,0.641
10,O=C1N(Cc2cccc(Cl)c2)C[C@@H]2C[C@@H](c3cccn3-c3nccs3)N3CCC[C@@]123,-19.2
11,COc1ccc2cc3cc(C(=O)N4CCCC(C)C4)oc3nc2c1 (stereo not shown),9.69
12,COc1cccc(-c2sc3ccc(OC)cc3c2-c2cc(F)cc(OC)c2)c1,12.4
13,CC(=O)Nc1ccc(C(=O)COC(=O)C2CCCCC2)c(F)c1,14.7
14,COc1ccc(NS(=O)(=O)c2ccc3c(c2)NC(=O)CC(=O)N3)cc1OC,19.5
15,Cc1nn(CCCC(=O)N2CCc3ccccc3C2)c(=O)c2cc3sccc3n12,-6.21
16,NC(=O)[C@@H]1CCCN1C(=O)c1ccc2nc(Cc3cccc(Cl)c3)oc2c1,9.36
17,Nc1n[nH]c(N)c1N=Nc1ccccc1F,9.67
18,CN(C)/C=C1/Nc2ccccc2C1=O,12.6
19,CC1CCN(C2=C(NS(=O)(=O)c3ccc(Br)cc3)C(=O)c3ccccc3C2=O)CC1,10.2
20,O=C1CC(C(=O)NCc2ccccc2)N=C(N2CCCCC2)N1 (stereo not shown),1.24
21,CN1CCN(c2ccc(S(=O)(=O)N3CCCCC3)cn2)CC1,2.76
22,O=C(O)CCc1ccc(-c2ccccc2)n1CC(=O)O,11.5

row,Structure (SMILES),"hERG current change (%, negative = inhibition) at 1uM [%]"
1,CCOc1ccc(-c2c(C)n([O-])c3c([n+]2=O)CCCC3)cc1,2.32
2,O=C(CSc1nccn(-c2ccc(Br)cc2)c1=O)Nc1ccccc1F,14.6
3,N#C/C(=C\c1cc([N+](=O)[O-])c(N2CCCCC2)cc1N1CCCCC1)c1nn(-c2ccccc2)c(N)c1C#N,9.31
4,CC/C(=N\NC(=O)c1ccoc1C)c1ccc(C)o1,9.78
5,Cc1ccccc1-n1c(O)c(C(c2ccncc2)c2c(O)n(-c3ccccc3C)c(=O)[nH]c2=O)c(=O)[nH]c1=O,10.7
6,N#CCSc1nc2c(c(=O)n1Cc1ccco1)C1(CCCC1)Cc1ccccc1-2,17.6
7,COc1ccc(/C=C(\NC(=O)c2ccc([N+](=O)[O-])cc2)C(=O)NCCCn2ccnc2)cc1,-14.4
8,COc1cc2c(cc1OC)CN(C(=O)c1ccc(S(=O)(=O)N3CCCC3)cc1)CC2,12.2
9,Cc1ccc(C)c(NC(=S)NCC(c2ccccc2)N(C)C)c1 (stereo not shown),-1.39
10,COc1ccccc1CN1CCCCC1C(=O)O (stereo not shown),-0.838
11,O=C1[C@@H]2Cc3c([nH]c4ccccc34)CN2C(=O)CN1CCCO,15.4
12,Clc1ccc(C(c2ccccc2)c2ncc[nH]2)cc1 (stereo not shown),11.2
13,Cl.OC(COc1cccc(OCC(O)CN2CCOCC2)c1)CN1CCOCC1 (stereo not shown),4.98
14,COc1cc(/C=C(\C#N)C(=O)c2ccc(O)c(O)c2)cc(I)c1O,13.3
15,Cc1nc(CNC(=O)c2cc(COc3ccc(F)cc3Cl)on2)cs1,3.49
16,C1=Nc2c(Nc3ccccc3)ncnc2Oc2ccccc21,4.25
17,CCN(CC)c1ccc(/C=C2\C(=O)NC(=S)N(c3ccc(OC)cc3OC)C2=O)o1,4.08
18,Cc1ccc(CN2CCS(=O)(=O)CC2)o1,9.98
19,CCOn1c(=O)c(=O)n(OCc2ccccc2)c2ccccc21,1.96
20,Cc1cccc(OCCNc2ccc([N+](=O)[O-])cn2)c1,5.54
21,Cc1noc(C)c1COc1ccc(C(=O)N2CCN(c3ccccc3F)CC2)cc1,0.836
